The whole screen tested about 360,000 compounds, of which about 25,000 (6.9%) were called active. This list was built around the results that the source calls inconclusive (neither active nor inactive); the mix of calls is not that of the screen. Calls come from the whole dose curve; as a rule, active = well fitted inhibition curve with a large enough effect; inconclusive = small, poorly fitted or top-dose-only effect; inactive = flat fitted curve, though single readings scatter. Where the call is inconclusive, the potency comes from a doubtful curve fit.
Molecular target: Luciferin 4-monooxygenase (Photinus pyralis) (UniProt P08659)
Experiment: qHTS profiling assay for firefly luciferase inhibitor/activator using purifed enzyme and Km concentrations of substrates (counterscreen for miR-21 project); note: nearly all actives have a fitted effect of over 55% in size;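 for activity change, negative = inhibition: plate controls were vehicle for no effect and reference inhibitor for full effect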
Conditions: purified FLuc, luminescence inhibition; activity change, negative = inhibition: at 57.5 µM (top of the series)
In short: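 Purified P. pyralis luciferase, 10 nM final, with Km-level 10 uM D-luciferin and 10 uM ATP in 50 mM Tris acetate pH 7.5, 10 mM Mg acetate, 0.01% Tween-20, 0.05% BSA; 6-point qHTS titration about 60 µM downward; luminescence read.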
Potency is the fitted concentration of half-maximal effect; tags give direction and shape of the fitted curve.

Chain of UniProt P08659 (P08659 whole entry, looked up): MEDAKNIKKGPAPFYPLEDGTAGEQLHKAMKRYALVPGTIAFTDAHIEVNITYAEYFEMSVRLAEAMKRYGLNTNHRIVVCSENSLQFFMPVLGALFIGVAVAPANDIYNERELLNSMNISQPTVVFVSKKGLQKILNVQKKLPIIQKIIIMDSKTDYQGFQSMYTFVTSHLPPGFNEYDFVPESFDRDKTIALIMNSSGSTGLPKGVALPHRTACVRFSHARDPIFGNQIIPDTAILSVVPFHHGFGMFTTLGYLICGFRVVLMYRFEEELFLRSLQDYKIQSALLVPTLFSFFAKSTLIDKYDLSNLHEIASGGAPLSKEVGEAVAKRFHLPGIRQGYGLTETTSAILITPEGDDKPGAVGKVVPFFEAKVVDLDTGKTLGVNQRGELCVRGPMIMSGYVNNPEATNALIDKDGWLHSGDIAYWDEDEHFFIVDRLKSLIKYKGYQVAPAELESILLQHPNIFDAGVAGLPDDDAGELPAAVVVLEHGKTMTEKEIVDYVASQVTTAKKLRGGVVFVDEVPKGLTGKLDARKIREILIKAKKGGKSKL

SMILES | Potency | activity change, negative = inhibition
COc1ccc(C(=O)C2CCN(C(=S)Nc3ccc(F)cc3)CC2)cc1 | inconclusive: 23.9 µM [inhibitor, partial curve, poor fit] | –
CC(C)Nc1nnc(SCC(=O)Nc2ccc3c(c2)C(=O)c2ccccc2C3=O)s1 | inconclusive: 13.5 µM [inhibitor, single point] | –
COc1ccc(OCc2cc(C(=O)NCC3CCCCO3)no2)c(Cl)c1 (centres undefined) | inconclusive: 26.9 µM [inhibitor, partial curve] | –
COc1ccc(OC)c(C(C)NC(C)=O)c1 (centres undefined) | – | inactive: 2.46%
O=C(/C=C/C=C/c1ccccc1)c1ccco1 | active: 3.01 µM | –
Cc1cc(C)n(-c2ccc(C(=O)OCc3ccccc3)cc2)n1 | inconclusive: 21.3 µM [inhibitor, single point] | –
ON=C1c2cc(OCCN3CCCCC3)ccc2-c2ccc(OCCN3CCCCC3)cc21 | inconclusive: 8.49 µM [inhibitor, partial curve, poor fit] | –
Cc1ccc2nc(SC(C)C(=O)N3CCCCC3)[nH]c2c1 (centres undefined) | inconclusive: 30.1 µM [inhibitor, partial curve, poor fit] | –
Cc1nn(-c2ccccc2)c(C)c1/C=N/NC(=O)CSc1nnc(SCc2cccc3ccccc23)s1 | inconclusive: 4.78 µM [inhibitor, partial curve, poor fit] | –
COc1ccc(C(=O)Nc2cc(-c3ccccc3)nn2-c2ccccc2F)cc1 | inconclusive: 21.3 µM [inhibitor, single point] | –
COc1ccc(-c2ccnc(-c3ccncc3)n2)cc1 | inconclusive: 26.9 µM [inhibitor, single point] | –
CC(C)(C)c1ccc(C(=O)Nc2nnc3n2CCS3)cc1 | active: 6.01 µM | –
CCNC(=S)NNC(=O)c1cc(C2CC2)nc2ccccc12 | active: 12 µM | –
CC(=O)c1ccc(OCc2cc(C(=O)NC(C)c3cnn(C)c3)no2)cc1 (centres undefined) | inconclusive: 21.3 µM [inhibitor, single point] | –
O=C(O)CNC(=S)N(Cc1ccccc1)Cc1ccccc1F | inconclusive: 16.9 µM [inhibitor, partial curve] | –
CCCc1nc(-c2ccc(-c3ccc(F)cc3)cc2)no1 | inconclusive: 3.38 µM [inhibitor, full curve] | –
Cc1nc(N2CCOCC2)c2cc(-c3ccccc3)sc2n1 | active: 21.3 µM | –
O=C(COc1ccc(Cl)cc1Cl)N/N=C/c1ccc(OC2OC(CO)C(O)C(O)C2O)cc1 (centres undefined) | inconclusive: 26.9 µM [inhibitor, partial curve, poor fit] | –
C=CCN1C(=O)C(CC(=O)O)SC1=Nc1ccc(N=Nc2ccccc2)cc1 (centres undefined) | inconclusive: 30.1 µM [inhibitor, partial curve, poor fit] | –
O=C(COc1ccccc1)Nc1nc(-c2cccnc2)cs1 | inconclusive: 8.49 µM [inhibitor, partial curve] | –
COc1ccc(-c2csc(NC(=O)CS(=O)(=O)c3ccccc3)n2)cc1 | inconclusive: 23.9 µM [inhibitor, partial curve, poor fit] | –
Cc1ccc(C(C)C)cc1OCCCCN1CCCC1 | – | inactive: -0.578%

SMILES | Potency | activity change, negative = inhibition
O=C(CSc1ccc2ccccc2c1)Nc1nc2ccccc2[nH]1 | – | inactive: 3.41%
CN(C(=O)CSc1nnc(-c2c[nH]c3ccccc23)o1)C1CCS(=O)(=O)C1 (centres undefined) | inconclusive: 23.9 µM [inhibitor, partial curve, poor fit] | –
CCOC(=O)c1ccc(N2C=C(C(=O)OC)C(c3ccc(OC)c(O)c3)C(C(=O)OC)=C2)cc1 | active: 16.9 µM | –
Cc1cc(C)cc(-n2ncc3c2CCCC3NC(=O)C2(C(N)=O)CC2)c1 (centres undefined) | inconclusive: 23.9 µM [inhibitor, partial curve, poor fit] | –
CC(C)n1cc(CNC(=O)C2CCC(=O)N(Cc3ccccc3F)C2)cn1 (centres undefined) | – | inactive: 1.87%
N/C(=N\OC(=O)Cc1ccccc1)c1ccccc1Cl | inconclusive: 23.9 µM [inhibitor, single point] | –
Cc1ccc(-c2noc(-c3cccnc3NCc3ccc(Cl)cc3)n2)cc1 | inconclusive: 9.53 µM [inhibitor, partial curve] | –
CCc1noc(C)c1C(=O)Nc1nnc(C2CCCCC2)s1 | inconclusive: 30.1 µM [inhibitor, partial curve, poor fit] | –
O=C(Nc1ccc(NC(=O)c2ccco2)nc1)c1cccnc1 | active: 10.7 µM | –
COc1ccc(-n2cnc3sc(-c4ccccc4)cc3c2=O)cc1 | inconclusive: 1.35 µM [inhibitor, full curve] | –
CC(=O)/C(C#N)=C1\NC(=O)C(Cc2ccccc2Cl)S1 (centres undefined) | inconclusive: 12 µM [inhibitor, partial curve] | –
N#Cc1cc2cc3c(cc2nc1N1CCOCC1)OCO3 | inconclusive: 16.9 µM [inhibitor, partial curve] | –
COc1cc([N+](=O)[O-])cc(/C=C2/SC(=S)N(Cc3ccccc3)C2=O)c1O | inconclusive: 37.9 µM [inhibitor, partial curve, poor fit] | –
CS(=O)(=O)N1N=C(c2ccccc2)CC1c1ccc2c(c1)OCO2 (centres undefined) | active: 21.3 µM | –
O=C(NCC1CCCO1)c1cccc(C(=O)NCC2CCCO2)c1 (centres undefined) | – | inactive: -1.68%
N#Cc1c(NC(=O)C2CC(c3c(F)cccc3Cl)=NO2)sc2c1CCC2 (centres undefined) | inconclusive: 21.3 µM [inhibitor, single point] | –
COc1ccc(N(Cc2ccccc2)C(=O)c2ccccc2[N+](=O)[O-])cc1 | – | inactive: -0.461%
O=C(NC1CCSc2ccccc21)c1ccccc1Br (centres undefined) | active: 16.9 µM | –
Cc1ccc2c(CSc3nnc(C4CC4)n3N)cc(=O)oc2c1C | inconclusive: 30.1 µM [inhibitor, partial curve, poor fit] | –
O=C(CSc1nnc(CNC(=O)c2c(F)cccc2Cl)o1)Nc1ccc2c(c1)OCCO2 | inconclusive: 23.9 µM [inhibitor, partial curve] | –
CCOc1ncccc1C(=O)OCC(=O)c1cccs1 | inconclusive: 23.9 µM [inhibitor, partial curve, poor fit] | –
COc1ccc(NC(=O)c2sc(SCc3ccccc3)nc2N)cc1 | inconclusive: 21.3 µM [inhibitor, partial curve, poor fit] | –
